A collection of fitness landscapes (doi:10.1016/j.celrep.2020.107928)
Whole data set: some 81,000 sequences, median “one-hybrid fitness for binding parS DNA” near -0.17, cut for the highest 2% near 0.51. Some of the results follow.

B1: Caulobacter ParB omega fusion; a variant is named by its letters at X, in order, B8GW30 (parent)
chain: MESVVVGEPGMSEGRRGLGRGLSALLGEVDAAPAQAPGEQLGGSREAPIEILQRNPDQPRRTFREEDLEDLSNSIREKGVLQPILVRPSPDTAGEYQIVAGERAWRAAQRAGLKTVPIMVRELDDLAVLEIGIIENVQRADLNVLEEALSYKVLMEKFERTQENIAQTIGKSXSHVANXMRLLXLPDEVQSYLVSGELTAXHARAIAAAADPVALAKQIIEGGLSVRETEALARKAPNLSAGKSKGGRPPRVKDTDTQALESDLSSVLGLDVSIDHRGSTGTLTITYATLEQLDDLCNRLTRGI

Variants of: B1
Assay: one-hybrid fitness for binding parS DNA (scaled: cognate 1, non-cognate 0); higher = stronger binding
Conditions: with parS DNA site
Outline: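 Fitness is the rescaled log change in variant-to-wild-type read ratio, measured by Illumina sequencing of plasmids before and after bacterial one-hybrid selection. The scale puts cognate at 1 and non-cognate at 0. Selection of Caulobacter ParB libraries, four specificity codons randomised, took place in E. coli USO with a HIS3 reporter, site 19 bp from the promoter, over 48 hours at 37°C on M9-minus-histidine with 0.1 mM IPTG and 5 mM 3-AT.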

one-hybrid fitness for binding parS DNA, 0.971:
RYQG

one-hybrid fitness for binding parS DNA, 0.301:
RNFA

one-hybrid fitness for binding parS DNA, 0.206:
NKDI

one-hybrid fitness for binding parS DNA, 0.696:
RNGT

one-hybrid fitness for binding parS DNA, 0.994:
RIIS

one-hybrid fitness for binding parS DNA, 0.248:
HCGM

one-hybrid fitness for binding parS DNA, 0.24:
RANF

one-hybrid fitness for binding parS DNA, 0.914:
RTNC

one-hybrid fitness for binding parS DNA, 0.22:
RVVF

one-hybrid fitness for binding parS DNA, 0.903:
RHRG

one-hybrid fitness for binding parS DNA, 0.609:
RMLA

one-hybrid fitness for binding parS DNA, 0.207:
RLFF

one-hybrid fitness for binding parS DNA, ≤ 0.2:
MTYL
HVTS
TSRG
HHDW
TQRI
YLYN
EIFC
SPHR
LWTC
PYRL
RYIE
YVTC
NDIW
SYWW
NIKP
DSFG
EVAS
QGSG
HYYT
SSVW
GRTM
WIGS
NVHS
QAVM
TGSW
NTEV
IGSC
RFEL
SVVW
QSCG
LMGG
TAYS
QSAT
QNVR
YRQQ
DRNG
KYPQ
RTTI
RMRK
NIRC
PMDT
LCHG
QAIH
DCHV
TRLN
DDKH
QQWR
TVFR
TFER
EGDS
PPCC
QEEF
CPDA
AWYY
KGSR
TCIS
DLRN
QCLE
HSHR
PVMT
GERW
TGLW
WKHG
QAFE
DIRK
VYAN
CVQE
QLPK
ARAC
EACR
RHPM
LKTY
EQWV
RWQP
SKTW
HKMG
YRYM
SLIW
VNSM
TFPL
CVCS
AIDG
WGDC
WLTS
TEIS
CQPC
LTHN
TYPS
SIQE
QRKW
MNVL
PVIL
EAVY
SRPT
CMYE
GFTG
IQSS
PLQM
HYLA
QGEE
TRSS
CLWF
EVYT
AVRC
RCIK
LVSS
PPSS
LSMS
KQSL
IKDG
GAKW
TIHI
MCLC
MFDR
ETWS
MVYH
NSQR
DGAY
KGRI
GKDW
WGSG
VWMI
GYTM
YAWI
IEPY
THYD
DAHY
AATA
WYPG
PGRS
NALG
HDSW
WATR
YMYL
LMVK
QYKI
PGGP
IWKS
GRKS
TAET
VHNI
TSSH
ASPF
CTNE
GYDC
QNLG
TFQI
TPEE
QGAG
RNQW
LICF
CHHT
TCKT
SLWN
RRIR
DYAS
DNYY
PHMV
GATT
MKYT
GWKG
EKQT
EYSG
YQRG
VYMT
RDSD
TNQG
MSIT
SVGC
WPTQ
KIGS
VAND
IPTY
HARP
PNNL
VYKC
RACL
PTHK
CNMP
CYHS
WRAP
PFPQ
PYPM
LLHE
LMKR
LQLS
LGIC
HSME
PIMA
MSSC
QDCV
RDPM
QGYE
THHT
QETP
HLSM
AIMR
FRLV
KTLQ
EHQS
RNSD
WNQG
AMTW
HYQE
TPGM
IRNI
QYDS
HKKT
EPFG
GWLI
ETCR
RKII
SSLA
LADP
WNAL
MRGY
QFMG
RQNP
RCKL
WYAL
DLDR
IMHM
TNSN
AWPS
QNTC
ARRW
QKEE
VSNK
MLRG
EPAP
KAHR
DCTR
PNNV
CQGA
LTHI
MRVR
KVSW
QYTD
TITC
QKPY
RMML
TQTS
FPTG
QVKE
SINS
KRAS
HCGP
RETF
IGAT
RPFK
APSV
VGPC
HHML
CPNL
LGHT
IRSF
TKRS
REDE
QLSN
IFDS
AWYG
DTMG
DNEV
FYYG
TVKA
TDGD
TTHY
VLDM
SFVT
KMPG
ISNW
GDMG
LAVR
PENR
GGHS
QNRE
QHFV
ALGG
SCSN
RVVI
PRFE
NRKM
DGKF
DCTS
AWKI
FTEI
QCNS
NPIA
ISPL
QEAN
LSHA
VMAR
PTLG

one-hybrid fitness for binding parS DNA, 0.378:
RWAA
